Measurements reported in patent US20250270339A1 (Alector, published 2025).

Columns and labels:
[1] = biological target: T1, Full length human TfR on CHO cells (human, UniProt P02786); assay: FACS MFI
T1 construct: also called CHO + huTfR; CHO + hTfR

Cyno TfR ECD Avi-His = biological target: T2, Cyno TfR ECD Avi-His (cynomolgus macaque, UniProt Q5RDH6 89-760 (Pongo abelii entry), biotin on the Avi tag (BirA) where captured on streptavidin); assay: ELISA OD450
T2 construct: also called Cyno TfR Avi-His; cyno TfR Avi-His
T2 chain: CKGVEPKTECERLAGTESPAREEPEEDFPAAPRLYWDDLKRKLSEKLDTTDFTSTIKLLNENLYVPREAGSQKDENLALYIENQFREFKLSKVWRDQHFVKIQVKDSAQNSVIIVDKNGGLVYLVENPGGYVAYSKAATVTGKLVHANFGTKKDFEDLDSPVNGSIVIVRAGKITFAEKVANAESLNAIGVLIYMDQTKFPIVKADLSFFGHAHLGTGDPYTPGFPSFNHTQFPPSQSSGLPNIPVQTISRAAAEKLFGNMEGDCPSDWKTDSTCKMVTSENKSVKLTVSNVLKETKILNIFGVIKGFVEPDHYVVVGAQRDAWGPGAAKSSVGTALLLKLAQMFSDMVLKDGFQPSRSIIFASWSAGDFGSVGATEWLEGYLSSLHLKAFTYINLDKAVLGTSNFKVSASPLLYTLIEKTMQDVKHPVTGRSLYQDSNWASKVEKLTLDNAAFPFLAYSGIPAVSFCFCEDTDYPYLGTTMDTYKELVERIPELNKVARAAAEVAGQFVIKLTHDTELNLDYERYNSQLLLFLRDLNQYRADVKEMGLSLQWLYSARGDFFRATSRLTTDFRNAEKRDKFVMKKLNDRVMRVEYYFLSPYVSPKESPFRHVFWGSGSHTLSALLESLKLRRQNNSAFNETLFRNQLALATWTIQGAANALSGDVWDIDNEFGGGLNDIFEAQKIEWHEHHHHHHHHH

[2] = biological target: T3, Mouse TfR (muTfR) ECD Avi-His (mouse, UniProt Q62351, biotin on the Avi tag (BirA) where captured on streptavidin); assay: ELISA OD450
T3 construct: also called MuTfR Avi-His

[3] = biological target: T4, huTfR Apical Domain-Avi-His (human, biotin on the Avi tag (BirA) where captured on streptavidin); assay: ELISA OD450
T4 construct: also called huTfR apical Avi-His; hTfR Apical
T4 chain: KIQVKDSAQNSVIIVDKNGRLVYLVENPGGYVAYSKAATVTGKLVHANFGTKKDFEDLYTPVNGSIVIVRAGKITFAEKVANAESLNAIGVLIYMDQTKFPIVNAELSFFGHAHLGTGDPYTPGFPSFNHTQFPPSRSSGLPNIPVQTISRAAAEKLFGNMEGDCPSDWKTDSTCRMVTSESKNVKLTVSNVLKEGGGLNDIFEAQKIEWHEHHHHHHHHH

T1 sequence (P02786 whole entry): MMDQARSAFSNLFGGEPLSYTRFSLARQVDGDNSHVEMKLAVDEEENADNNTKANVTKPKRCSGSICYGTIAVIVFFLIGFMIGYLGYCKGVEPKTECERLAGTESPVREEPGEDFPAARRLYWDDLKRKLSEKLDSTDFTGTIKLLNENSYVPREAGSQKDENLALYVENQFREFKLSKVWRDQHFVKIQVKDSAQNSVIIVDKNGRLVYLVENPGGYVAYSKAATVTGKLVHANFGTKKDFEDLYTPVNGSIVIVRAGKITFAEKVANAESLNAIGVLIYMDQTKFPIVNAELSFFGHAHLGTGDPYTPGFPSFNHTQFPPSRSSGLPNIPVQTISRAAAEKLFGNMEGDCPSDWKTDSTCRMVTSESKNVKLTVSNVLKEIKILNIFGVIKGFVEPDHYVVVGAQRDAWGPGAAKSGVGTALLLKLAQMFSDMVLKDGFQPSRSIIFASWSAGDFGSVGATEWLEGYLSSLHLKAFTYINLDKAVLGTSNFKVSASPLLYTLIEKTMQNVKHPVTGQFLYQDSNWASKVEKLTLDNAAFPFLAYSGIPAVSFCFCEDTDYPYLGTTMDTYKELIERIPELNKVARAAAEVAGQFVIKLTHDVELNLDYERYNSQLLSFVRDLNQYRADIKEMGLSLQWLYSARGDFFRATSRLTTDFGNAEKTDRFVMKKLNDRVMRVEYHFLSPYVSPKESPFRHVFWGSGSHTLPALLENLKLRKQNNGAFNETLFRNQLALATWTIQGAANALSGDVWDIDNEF

B1: TfR16 2+1 anti-TfR bispecific antibody (bispecific antibody, human IgG1, kappa)
heavy 1: EVRLLESGGGLVQPGGSLRLSCAASGFTFSNYAMGWVRQAPGKGLEWVSAISGSGGSTYYADSVKGRFTTSRDDSKNALYLQMNSLRAEDTAVYYCARGGPGWYAADVWGQGTTVTVSSASTKGPSVFPLAPSSKSTSGGTAALGCLVKDYFPEPVTVSWNSGALTSGVHTFPAVLQSSGLYSLSSVVTVPSSSLGTQTYICNVNHKPSNTKVDKKV[here human IgG1 Fc with changes without letters]GGGGSGGGGSGGGGSEVQLQQSGTVLARPGASVKMSCKTSGYSFSSYWMHWVKQRPGQGLEWIGTIYPGNSDTIYNQNFKGKAKLTAVTSASTAYMELSSLTNEDSAVYYCSTIYYFSNWGQGTTLTVSSGGSEGKSSGSGSESKSTGGSDIKMTQSPSPMFASLGERVTITCKASQDINSYLSWFQQKPGKSPKTLIYRANRLLDGVPSRFSGSGSGQDYSLTISSLDYEDVGIYYCLQYDVFPYTFGGGTKLEIK
heavy 2: EVRLLESGGGLVQPGGSLRLSCAASGFTFSNYAMGWVRQAPGKGLEWVSAISGSGGSTYYADSVKGRFTTSRDDSKNALYLQMNSLRAEDTAVYYCARGGPGWYAADVWGQGTTVTVSS[here human IgG1 constant region with changes without letters]
light: DIQMTQSPSSLSASVGDRVTITCRASQSISSYLNWYQQKPGKAPKLLIYAASSLQSGVPSRFSGSGSGTDFTLTISSLQPEDFATYYCQQADLPAFAFGGGTKVEIKRTVAAPSVFIFPPSDEQLKSGTASVVCLLNNFYPREAKVQWKVDNALQSGNSQESVTEQDSKDSTYSLSSTLTLSKADYEKHKVYACEVTHQGLSSPVTKSFNRGEC
notes: 2+1
- fold over CHO parental [1]: 1000 fold
- fold over isotype control (Cyno TfR ECD Avi-His): 1 fold
- fold over isotype control [2]: 1 fold
- fold over isotype control [3]: 39 fold

B2: TfR22 2+1 anti-TfR bispecific antibody (bispecific antibody, human IgG1, kappa)
heavy 1: EVRLLESGGGLVQPGGSLRLSCAASGFTFSNYAMGWVRQAPGKGLEWVSAISGSGGSTYYADSVKGRFTTSRDDSKNALYLQMNSLRAEDTAVYYCARGGPGWYAADVWGQGTTVTVSSASTKGPSVFPLAPSSKSTSGGTAALGCLVKDYFPEPVTVSWNSGALTSGVHTFPAVLQSSGLYSLSSVVTVPSSSLGTQTYICNVNHKPSNTKVDKKV[here human IgG1 Fc with changes without letters]GGGGSGGGGSGGGGSDVQLQESGPGLVKPSQSLSLTCTVTGYSITSDYAWNWIRQFPGNKLEWMGYISYSGSTRYNPSLKSRISITRDTSKNQFFLQLNSVTTEDTATYYCTSWGYRYLEDYWGQGTSVTVSAGGSEGKSSGSGSESKSTGGSQIVLTQSPAIMSASPGERVTMTCSASSSISSMHWYQQKPGTSPKKWIYDTSKLASGVPARFSGSGSGTSYSLTISSMEAEDAATYYCHQRSSYPWTFGGGTKLEIK
heavy 2: EVRLLESGGGLVQPGGSLRLSCAASGFTFSNYAMGWVRQAPGKGLEWVSAISGSGGSTYYADSVKGRFTTSRDDSKNALYLQMNSLRAEDTAVYYCARGGPGWYAADVWGQGTTVTVSS[here human IgG1 constant region with changes without letters]
light: B1 light
notes: 2+1
- fold over CHO parental [1]: 442 fold
- fold over isotype control (Cyno TfR ECD Avi-His): 1 fold
- fold over isotype control [2]: 2 fold
- fold over isotype control [3]: 40 fold

B3: TfR17 2+1 anti-TfR bispecific antibody (bispecific antibody, human IgG1, kappa)
heavy 1: EVRLLESGGGLVQPGGSLRLSCAASGFTFSNYAMGWVRQAPGKGLEWVSAISGSGGSTYYADSVKGRFTTSRDDSKNALYLQMNSLRAEDTAVYYCARGGPGWYAADVWGQGTTVTVSSASTKGPSVFPLAPSSKSTSGGTAALGCLVKDYFPEPVTVSWNSGALTSGVHTFPAVLQSSGLYSLSSVVTVPSSSLGTQTYICNVNHKPSNTKVDKKV[here human IgG1 Fc with changes without letters]GGGGSGGGGSGGGGSDVQLQESGPGLVKPSQSLSLTCTVTGYSITSDYAWNWIRQFPGNKLEWMGYISYSGSTSYNPSLKSRISITRDTSKNQFFLQLNSVTTEDTATYYCASWGYRYLEDYWGQGTSVTVSSGGSEGKSSGSGSESKSTGGSQIVLTQSPAIMSASPGEKVTMTCSASSSISSMHWYQQKPGTSPKRWISDTSKLASGIPARFSGSGSGTSYSLTISSMAAEDAAAYYCHQRSSYPWTFGGGTKLEIK
heavy 2: EVRLLESGGGLVQPGGSLRLSCAASGFTFSNYAMGWVRQAPGKGLEWVSAISGSGGSTYYADSVKGRFTTSRDDSKNALYLQMNSLRAEDTAVYYCARGGPGWYAADVWGQGTTVTVSS[here human IgG1 constant region with changes without letters]
light: B1 light
notes: 2+1
- fold over CHO parental [1]: 305 fold
- fold over isotype control (Cyno TfR ECD Avi-His): 1 fold
- fold over isotype control [2]: 1 fold
- fold over isotype control [3]: 38 fold

B4: TfR23 2+1 anti-TfR bispecific antibody (bispecific antibody, human IgG1, kappa)
heavy 1: EVRLLESGGGLVQPGGSLRLSCAASGFTFSNYAMGWVRQAPGKGLEWVSAISGSGGSTYYADSVKGRFTTSRDDSKNALYLQMNSLRAEDTAVYYCARGGPGWYAADVWGQGTTVTVSSASTKGPSVFPLAPSSKSTSGGTAALGCLVKDYFPEPVTVSWNSGALTSGVHTFPAVLQSSGLYSLSSVVTVPSSSLGTQTYICNVNHKPSNTKVDKKV[here human IgG1 Fc with changes without letters]GGGGSGGGGSGGGGSDVQLQESGPGLVKPSQSLSLTCTVTGYSITSDYAWNWIRQFPGNKLEWMGYISYSGSTSYNPSLKSRISITRDTSKNQFFLQLNSVTTEDTATYYCTSWGYRYLEDYWGQGTSVTVSSGGSEGKSSGSGSESKSTGGSQIVLTQSPAIMSASPGERVTMTCSASSSISSLHWYQQKPGTSPKKWIYDTSKLASGVPARFSGSGSGTSYSLAISSMEAEDAATYYCHQRSSYPWTFGGGTKLEIK
heavy 2: EVRLLESGGGLVQPGGSLRLSCAASGFTFSNYAMGWVRQAPGKGLEWVSAISGSGGSTYYADSVKGRFTTSRDDSKNALYLQMNSLRAEDTAVYYCARGGPGWYAADVWGQGTTVTVSS[here human IgG1 constant region with changes without letters]
light: B1 light
notes: 2+1
- fold over CHO parental [1]: 278 fold
- fold over isotype control (Cyno TfR ECD Avi-His): 1 fold
- fold over isotype control [2]: 1 fold
- fold over isotype control [3]: 40 fold
